In the supplement of paper PMC11417369:
This is one part of the list.

The sequences below were run on PfAP2-HC AP2 domain (GST-tagged) (assay: gcPBM binding intensity (ln(normalized median fluorescence intensity)); higher = stronger DNA binding).
How it was run: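 An Agilent 4 × 180k array carrying primer-extended double-stranded 36-bp intergenic genomic probes and negative controls received GST-tagged P. falciparum DNA-binding domains expressed in E. coli, about 25 μg on average, for 1 h. The binding buffer contained 1× PBS, 1% milk, 0.2 mg/ml BSA, 0.5% salmon testes DNA and 0.03% Triton X-100. Binding intensity is the top Masliner-normalised natural-log median intensity across replicate spots of either probe orientation, read after Alexa488 anti-GST antibody staining and a 488 nm scan.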

| Sequence | gcPBM binding intensity (ln) |
| --- | --- |
| GGAAAATATGTTTGTGTGCACAGCTAGCTATTTGTA [GTGCAC_site9637] | 9.93 |
| AAATAAATTGATTCAACACACACATATGTAGGAAGT [CACACA_site9068] | 10.5 |
| TTTTTTTTTTTCAAGCGTACAAAAAATATATTTAAA [XGTACX_site5327] | 9.29 |
| AATTTTTTTTGTCTCTGTACTTATAAAATATATATG [XGTACX_site4742] | 9.69 |
| TAAAACCTTTAAAATACATGCAGCATATATAAGTAA [TGCATGCA_site181] | 9.6 |
| AAGGATATAACATACACACACACACCCATATATATA [CACACA_site4142] | 11.1 |
| AAAGAAATTATTTGTTGTACATATGTTATTTTTTTT [XGTACX_site7570] | 9.74 |
| TGCAATTTAATATGAGTGCATATATTGAGAAAATAC | 9.64 |
| AATAAATTGGTATGTTGTACAAAGTAACCATCGATT [XGTACX_site2823] | 9.75 |
| ATATCATGTTAAGATTGTACATATATATAATATATA [XGTACX_site7626] | 9.59 |
| AAATAACAAATTTTTAAAATGTATATATATATATAT [TGCATGCA_negctrl_site219] | 9.47 |
| ATTCATAATTTATTATGTACATATATATAATATATT [XGTACX_site1711] | 9.7 |
| TTATAATAAATATTCATATGTTCAAATATATATATA [CACACA_negctrl_site624] | 9.45 |
| TTTATTTATTATTATGTACACACTATATTAAAACAT [CACACA_site700] | 9.74 |
| TATAGATTTATATACACATGCATTTTGGTAAAGAAA [TGCATGCA_site953] | 9.6 |
| AAATATATTTCTTTTTTTCTTATTATTAATTTGCTT [CACACA_negctrl_site1483] | 9.59 |
| ATTGTAAGTAGACACACACACATATAGATGTATATA [CACACA_site6463] | 10.2 |
| TATTTTTTTAATAACTGTACTTTTTTGTCAAATGGA [XGTACX_site4179] | 9.16 |
| TTAGGATTGAAGAGTTGTACATACCTCTTATTTGTT [XGTACX_site1376] | 9.64 |
| ATCATATATTATTTATGTACTTATTTATAATAATAT [XGTACX_site8257] | 9.64 |
| TATAAAATGTAATCTGAACACACATATTTTTTTAAT [CACACA_site8521] | 9.72 |
| TTAAAATTATAATACGTACACACCTTATCTTTTTGG [CACACA_site278] | 9.76 |

| Sequence | gcPBM binding intensity (ln) |
| --- | --- |
| GGCGTATGTGTATATACACACCCACGTATATATATA [CACACA_site9046] | 9.87 |
| TGTTGTTTTATGTTGTATTGTAATATATTATATTAT [XGTACX_negctrl_site46] | 9.9 |
| ATATATAACGGGCACACACACATTTACGTATGAATA [CACACA_site1833] | 11.1 |
| ATATATGGAGCTTATACACACTTTTATATTTTAACA [CACACA_site7757] | 9.82 |
| TTGGGCATAATGTCATGTACACAAATAATTCTTTAT [XGTACX_site861] | 9.55 |
| AAACGTGTGTATAATAGTACATAATTATAACGTAAT [XGTACX_site421] | 10 |
| CGTATTTTTGGACATGCATGTACAAATAATCTTATG [TGCATGCA_site973] | 9.57 |
| AAATTTGGCAAACACACACACACACCCACAGAGACA [CACACA_site4490] | 11.3 |
| AATGTTTTTGTGAGATGTATAAATTTTATTTTATTT [XGTACX_negctrl_site413] | 9.7 |
| AAAAAAATAATGTACACACACATATAGGTTTATATA [CACACA_site192] | 9.98 |
| TAAGTTTTGTTCTTTTGTACATATAAGTATAGATCG [XGTACX_site4735] | 9.46 |
| AGATTTATTCATTCATGTACTTATTTATTTTATTTT [XGTACX_site6702] | 9.87 |
| AATGTGCAAACAAACTGTACTTTTTTTTTTTTTTTT [XGTACX_site928] | 9.57 |
| TATAATGATGATGATAGTACGTATGAGTAAGAAAAA [XGTACX_site31] | 9.83 |
| ATAAAAATATTTATTACACACATAAGCAAAAAAAAA [CACACA_site3484] | 9.82 |
| TATTTTTATTTTTAAACCATATATATATATATATAT [CACACA_negctrl_site1560] | 9.71 |
| TATAGTTTCATTCTTTGTACATATATATTATTATTA [XGTACX_site8527] | 9.77 |
| CATACATATATACATACACACACATATAACCAATGT [CACACA_site8679] | 10.2 |
| TTTGTATTACGTTTGTGTACATATACAATGTGTTTT [XGTACX_site7708] | 9.83 |
| TCCATGCATTGACACACACACAAAAAAAAATTCTTT [CACACA_site7847] | 9.96 |
| TTTATTTATTTATGGACACACATACAAATCTTCCAG [CACACA_site4676] | 9.73 |
| AATAATAATGCTTTAACTTTGTTGTTATTTAGAATA [CACACA_negctrl_site1144] | 9.44 |
